Assay results taken from PubChem BioAssay AID624296 (National Center for Advancing Translational Sciences (NCATS), 2012).
The whole screen tested about 350,000 compounds, of which about 9,900 (2.8%) were called active. The shares of active, inactive and inconclusive entries below differ from those in the screen. Calls come from the whole dose curve; as a rule, active = well fitted activation curve with a large enough effect; inconclusive = small, poorly fitted or top-dose-only effect; inactive = no such curve, though single readings can be large or run the other way. No potency is given beside an inconclusive call; the fits are too rough.

test: A quantitative high throughput screen for small molecules that induce DNA re-replication in MCF 10a normal breast cells.; note: nearly all actives have a fitted effect of over 50% in size; conditions: MCF 10A DNA re-replication, Hoechst nuclear intensity, 48 h; series mostly up to 46.1 µM
Potency is the fitted concentration of half-maximal effect; tags give direction and shape of the fitted curve.

SMILES	Potency
CCOC(=O)Cn1nnc2c(sc3nc4c(c(-c5ccc(Cl)cc5)c32)CCC4)c1=O	inconclusive [activator, single point]
O=C(c1ccc([N+](=O)[O-])s1)N1CCc2ccccc21	inactive
O=C(Nc1nccs1)c1ccc(N2C(=O)[C@@H]3[C@H](C2=O)[C@H]2C=C[C@@H]3C2)cc1	inconclusive [activator, single point]
COc1ccc2c(c1)CCc1c(C(=O)N3CCCc4ccccc43)noc1-2	inconclusive [activator, single point]
Cc1ccnc(N/C=C(\C#N)c2nc(-c3cccc(Br)c3)cs2)c1	inconclusive [activator, single point]
CC1(c2cccc(Br)c2)NC(=O)N(CC(=O)NCC2CCCO2)C1=O (centres undefined)	inactive
CCCc1nc2ccc(NC(C)=O)cc2c(=O)n1Cc1ccc(Cl)cc1	inconclusive [activator, single point]
Cc1cccc(NC(=O)C(C)SCc2nc3sc4c(c3c(=O)[nH]2)CCCC4)n1 (centres undefined)	inactive
Cc1ccc(C)c(NC(NC(=O)c2ccccn2)C(Cl)(Cl)Cl)c1 (centres undefined)	inactive
O=C(N/N=C/c1ccccc1F)NC12CC3CC(CC(C3)C1)C2	inconclusive [activator, partial curve, poor fit]
Nc1nonc1-n1nnc(C(=O)N/N=C/c2cccs2)c1CSc1ccccc1	inconclusive [activator, partial curve]
C=CC[C@@H](CC(=O)N[C@H](CO)Cc1ccccc1)C(=O)N[C@H](C)COC(=O)[C@@H](CC=C)Cc1ccc(F)cc1	inactive
COc1ccc(CCN(C)Cc2nc(-c3cnccn3)no2)cc1OC	inconclusive [activator, partial curve]
O=C(O)CCC(=O)N1CCN(c2nc(-c3ccccc3Cl)c3cc(Br)ccc3n2)CC1	active: 20.6 µM
CN1C[C@H]2CON(C)[C@H]2C[C@H]1c1cccc(-c2ccc(C#N)cc2)c1	inactive
O=Cc1nccc2ccccc12	inconclusive [activator, single point]
O=C(O)CCCC(=O)Nc1ccc(C(=O)NCc2cccnc2)cc1	inactive
Cc1ccc(C2CC2c2n[nH]c(=S)n2-c2ccc(C)cc2)cc1 (centres undefined)	inconclusive [activator, single point]
O=C(C=Cc1ccccn1)c1ccccc1O	inconclusive [activator, single point]
CC(C)Oc1ccccc1OCCCOc1cccc2cccnc12	inconclusive [activator, partial curve, poor fit]
O=C(O)c1cccc(N2C(=S)N=C(Nc3ccccc3)C23CCCCC3)c1	inactive
O=C(CSc1nc2c(oc3ccccc32)c(=O)n1CC1CCCO1)NCc1ccc(F)cc1 (centres undefined)	inconclusive [activator, partial curve, poor fit]
COc1cccc(CNC(=O)CN2C(=O)COc3ccc(S(=O)(=O)N4CCC(C)CC4)cc32)c1	inactive
Cc1cccc(N2CCN(C(=O)c3cccc(S(=O)(=O)N4CCOCC4)c3)CC2)c1C	inconclusive [activator, single point]
Cc1cc(C)nc(SCc2cn3c(C)cc(C)nc3n2)n1	inconclusive [activator, full curve]

SMILES	Potency
O=S(=O)(Nc1cccc(-c2nc3cccnc3s2)c1)c1ccc2c(c1)OCCO2	inconclusive [activator, partial curve, poor fit]
C(#Cc1ccccc1)CN1CCOCC1	inactive
O=c1cc(-c2ccccc2F)oc2ccccc12	inactive
COc1cccc(/C=C/c2ccc3cccc(O)c3n2)c1	inactive
O=c1c2ccccc2nc(SCCN2CCCCC2)n1CCc1ccccc1	inconclusive [activator, single point]
COc1ccc(NC(C(=O)Nc2cccc(C(C)=O)c2)c2ccccc2)cc1 (centres undefined)	inconclusive [activator, partial curve, poor fit]
CCOC(=O)c1csc(-n2nc(C)cc2C(F)(F)F)n1	inconclusive [activator, single point]
COc1cccc(CNC(=O)C2CCCN(S(C)(=O)=O)C2)c1 (centres undefined)	active: 20.6 µM
Cc1cc2c3c(c1C)C(=O)C(=O)N3C(C)(C)CC2C (centres undefined)	inactive
O=[N+]([O-])c1ccc2cn[nH]c2c1	inconclusive [activator, partial curve, poor fit]
CN(C)/C=N/C(=S)Nc1ccccc1F	inactive
CC(C)(C)OC(=O)CNC(=O)c1[nH]cnc1C(=O)NC(c1ccccc1)c1ccccc1	inconclusive [activator, partial curve, poor fit]
CCCCn1c(SCC(=O)/C(C#N)=C(\C)N)nc2ccccc2c1=O	inconclusive [activator, partial curve, poor fit]
O=[N+]([O-])c1ccc(/C=N/Nc2nc(N3CCCCCC3)nc(N3CCCCCC3)n2)o1	inconclusive [activator, single point]
CCc1ccc(C2=CC(c3cc(Br)ccc3F)n3ncnc3N2)cc1 (centres undefined)	inactive
COc1ccc(-c2noc(-c3ccccc3C(=O)Nc3cccnc3)n2)cc1OC	inactive
CCOc1ccc(Nc2nnc(SCc3nc4ccccc4c(=O)[nH]3)s2)cc1	active: 10.3 µM
CC(/C=N/n1c(-c2cccnc2)n[nH]c1=S)=C\c1ccccc1	inactive
Cc1ccc(C(=O)NCC(=O)N(C)CC(=O)Nc2ccccc2Br)s1	inactive
COc1cccc(C(=O)NCCSCc2ccccc2Cl)c1	inactive
CC(=O)Nc1nonc1-c1ccccc1	inactive
O=C(CSc1ncn[nH]1)NC12CC3CC(CC(C3)C1)C2	inactive
CC(NC(=O)c1ccc(Cl)cc1)c1nnc(SCC(=O)NC2=NCCS2)n1C (centres undefined)	inactive
Clc1nc(-c2ccccn2)nc2scc(-c3ccccc3)c12	inconclusive [activator, single point]
